Among all 350,000 compounds or so, about 9,900 (2.8%) were called active. Inconclusive results, whose numbers are uncertain, are shown with a selection of clear calls. Calls follow the shape of the dose curve; as a rule, active = well fitted activation curve with a large enough effect; inconclusive = small, poorly fitted or top-dose-only effect; inactive = no such curve, though single readings can be large or run the other way. No potency is given beside an inconclusive call; the fits are too rough.
Assay: A quantitative high throughput screen for small molecules that induce DNA re-replication in MCF 10a normal breast cells. Also: nearly all actives have a fitted effect of over 50% in size.
Conditions: MCF 10A DNA re-replication, Hoechst nuclear intensity, 48 h; series mostly up to 46.1 µM
Potency is read from the fitted curve at half-maximal effect; tags tell the direction and shape of the fitted curve.

Compound	Potency
C=CCc1cccc(CNc2nc3ccccc3n2C(C)C)c1O	inconclusive [activator, single point]
Cc1ccc(N(C)C(=O)c2ccc3c(Cl)c4c(nc3c2)CCC4)cc1C	inconclusive [activator, single point]
O=C(OCn1ncc(Br)c(Br)c1=O)c1ccc(F)cc1	active: 4.61 µM
C[n+]1c2n(c3ccccc31)N=C(c1ccccc1)CS2	inconclusive [activator, single point]
N#Cc1cc(-c2ccccc2)nc(N2CCNCC2)n1	inactive
Cc1cccc(C(=O)Nc2ccccc2-c2nnn(CC(=O)Nc3ccc4c(c3)OCCO4)n2)c1	inconclusive [activator, single point]
Oc1[nH]c(=S)sc1/C=C1\C(c2ccccc2)=Nc2ccccc21	inconclusive [activator, partial curve, poor fit]
O=[N+]([O-])c1cccc(N/N=C/c2cccc(O)c2O)c1	inactive
Cc1cc(OC(=O)c2ccccc2Br)cc(=O)n1C	inconclusive [activator, partial curve, poor fit]
S=C(NCc1cccs1)Nc1cccc(Cl)c1	inactive
COc1ccc(OC)c(NC(=O)c2cc(-c3cc(C)c(C)cc3O)n[nH]2)c1	inconclusive [activator, single point]
CC1(C)Cc2ccccc2C(COc2ccccc2)=N1	inconclusive [activator, single point]
CCN(CC)S(=O)(=O)c1ccc(N(C)C)c(NC(=O)CSCc2c(C)noc2C)c1	inactive
Cc1ccc(OCc2cc(C(=O)N3CCC(c4ccccc4Cl)C3)no2)cc1C (stereo not drawn)	inactive
CCOc1ccccc1NC(=O)C1CCN(c2ccc(S(=O)(=O)N3CCCC3)cc2)CC1	inconclusive [activator, full curve]
Nc1nonc1-c1nc2ccccc2n1Cc1ccccc1	inconclusive [activator, single point]
NNc1ccc2c(C(F)(F)F)cc(C(F)(F)F)nc2n1	inactive
CC(C)CN(Cc1cc(=O)oc2cc(-c3ccccc3)c(O)cc12)CC(C)C	inconclusive [activator, single point]
Cc1ccc(C(=O)NC(=S)NCCCN2CCOCC2)cc1	inactive
N=c1c(S(=O)(=O)c2ccccc2)cc2c(=O)n3ccccc3nc2n1Cc1cccnc1	inconclusive [activator, partial curve, poor fit]
O=S1(=O)CCO[C@H]2Cc3ccccc3[C@H]2N1Cc1cccc(Cl)c1	inconclusive [activator, full curve, poor fit]
COc1cccc(NC(=O)Cn2c(=O)n(-c3cc(OC)c(OC)c(OC)c3)c(=O)c3ccccc32)c1	inactive
Cc1cc(NCCCn2ccnc2)n2c(nc3ccccc32)c1C#N	inconclusive [activator, single point]

Compound	Potency
Cc1c(N=C2N=C(NC(=O)NC(C)(C)C)c3ccccc32)c(=O)n(-c2ccccc2)n1C	inconclusive [activator, full curve, poor fit]
Cc1ccc(Cn2nnc3c(=O)[nH]c(C4CCN(S(=O)(=O)Cc5ccccc5)CC4)nc32)cc1	inconclusive [activator, partial curve, poor fit]
CN(C1CCCC1)C1CCN(C(=O)CNC(=O)/C=C/c2cccc(C(F)(F)F)c2)CC1	inactive
COc1ccc(C(=O)/C=C/c2ccc(N3CCCCC3)c([N+](=O)[O-])c2)cc1	active: 8.2 µM
Cc1ccc(NC(=S)N(CCCN2CCN(C)CC2)Cc2cccs2)cc1C	inconclusive [activator, partial curve, poor fit]
COc1ccccc1CN1C(=O)[C@H]2Cc3c([nH]c4ccccc34)C(C)(C)N2C1=O	inconclusive [activator, partial curve, poor fit]
COc1ccc(-c2ccc3c(c2)S(=O)(=O)c2cccc(C(=O)NCCOc4ccccc4Cl)c2C3=O)cc1OC	inconclusive [activator, full curve, poor fit]
COc1ccc(-c2csc(NC(=O)CSc3nc(C)cs3)n2)cc1	inactive
NNC(=O)c1csc(Cc2c(Cl)sc3ccc(Cl)cc23)n1	inactive
CCOC(=O)c1ccc2c(c1)[nH]c(=S)n2CC	inactive
CCC(C)Sc1cc(-c2nc3ccc(Cl)cn3c2NC2CCCCC2)ccc1OC (stereo not drawn)	inconclusive [activator, partial curve, poor fit]
Cc1ccnc(SCc2cn3c(C)cc(C)nc3n2)n1	inconclusive [activator, partial curve, poor fit]
C#CCOCCOCCOCCNc1nc(N2CCN(C(=O)CCCCCCCCCCNC(=O)Cn3cc(C[C@@H](C)O)nn3)CC2)nc(N2CCN(C(=O)CCCCCCCCCCNC(=O)[C@H](CO)n3cc(CCCSC)nn3)CC2)n1	active: 6.51 µM
CCc1cccc(NC(=S)N(CCCN2CCOCC2)C(C)c2cc3cccc(OC)c3o2)c1 (stereo not drawn)	inactive
O=C(N/N=C/c1cc([N+](=O)[O-])ccc1O)C1CC1	inconclusive [activator, partial curve, poor fit]
CN(C)c1ccc(N=Nc2ccccc2C(=O)OCC(=O)N(C)c2ccccc2)cc1	inactive
Cc1ccccc1C(=O)Nc1ccc(C(=O)N/N=C/c2ccc(O)cc2)cc1	inconclusive [activator, single point]
CCCN1CNC(=S)N(c2cc(C)ccc2C)C1	inconclusive [activator, partial curve, poor fit]
O=C(N/N=C/c1ccc([N+](=O)[O-])o1)c1cn(-c2ccccc2)nc1-c1ccc(F)cc1	inconclusive [activator, single point]
COC(=O)CC1(C(=O)OC)Oc2ccc(Br)cc2C(=O)N1c1ccc(Br)cc1Cl (stereo not drawn)	inconclusive [activator, single point]
CCC(=O)NC(=S)Nc1ccccc1F	inactive
CNS(=O)(=O)c1cccc(C(=O)OCC(=O)c2cc(C)n(CC3CCCO3)c2C)c1 (stereo not drawn)	inactive
CCN(CC)c1nc(Nc2ccccc2)nc(Oc2ccc(=O)n(C)n2)n1	inconclusive [activator, partial curve, poor fit]

Compound	Potency
CCC(C)Sc1ccc([C@H]2N[C@@](CC(C)C)(C(=O)OC)[C@H]3C(=O)N(C)C(=O)[C@@H]23)cc1 (stereo partly drawn)	inconclusive [activator, single point]
COc1cc(/C=C(\C#N)C(=O)NC2CCCCC2)ccc1OCc1ccc(C(=O)O)cc1	inactive
CN(C)CCCN(C(=O)c1ccc2c(c1)CCCC2)c1nc2ccc(F)cc2s1	inconclusive [activator, single point]
Cc1ccc(OCCn2cccn2)c(C)c1	inactive
COc1cc(CN2CC(=O)N(c3ccc(C)c(Cl)c3)C2=S)cc(OC)c1OC	inconclusive [activator, partial curve, poor fit]
Cc1cnc(C(=O)Nc2nnc(SCc3c(Cl)cccc3Cl)s2)cn1	inconclusive [activator, full curve]
COc1ccc(C(=O)O)cc1N1C(=O)Nc2ccccc2N1O	inactive
CN(CCO)c1ccc(C=NNc2ccc([N+](=O)[O-])cc2S(=O)(=O)Nc2ccccc2C(=O)O)cc1	inconclusive [activator, partial curve, poor fit]
CC/C(=C\C1CCCCC1)C(NP(=O)(c1ccccc1)c1ccccc1)c1ccccc1 (stereo not drawn)	inconclusive [activator, partial curve, poor fit]
CSc1oc(-c2ccc(F)cc2)nc1S(=O)(=O)c1ccccc1	inactive
CC(=O)c1cc(C)ccc1OC(=O)c1cccc2nc(C)oc12	inconclusive [activator, partial curve, poor fit]
NC(=O)c1c(Nc2nc3c(F)cccc3s2)sc2c1CCCC2	active: 20.6 µM
Cc1ccc(-c2nc(-c3nccc4ccccc34)oc2-c2ccccc2)cc1	inconclusive [activator, partial curve, poor fit]
CCN(CC)CCNCC(=O)Nc1ccc(Oc2ccccc2)cc1	inconclusive [activator, partial curve, poor fit]
O=C(OCC(=O)N1CCN(c2ccccc2)CC1)c1ccccc1NCCO	inactive
COC(=O)c1cc(NC2c3ncccc3C(=O)N2Cc2ccccc2)cc(C(=O)OC)c1 (stereo not drawn)	inconclusive [activator, partial curve, poor fit]
CON(C)C(=O)c1ccccc1N(C)C(=O)OC(C)(C)C	inconclusive [activator, single point]
C/C(Cl)=C\COc1cc(C)nc2c(Br)cccc12	inconclusive [activator, single point]
CC(NC(=O)c1ccc(Cl)cc1)C1CC2CCC1C2 (stereo not drawn)	inconclusive [activator, partial curve, poor fit]
CCOC(=O)CCC(=O)Nc1ccc(S(=O)(=O)N2CCCCC2)cc1	inactive
C=CCOc1ccc(/C=N/NC(=O)c2cc3c(OC)cc(OC)cc3[nH]2)cc1	inactive
CCCCCn1c(SCCC(C)C)nc2c1c(=O)[nH]c(=O)n2C	inconclusive [activator, single point]
